Results: ChEMBL document CHEMBL4888484, “Replenishing the malaria drug discovery pipeline: Screening and hit evaluation of the MMV Hit Generation Library 1 (HGL1) against asexual blood stage Plasmodium falciparum ,using a nano luciferase reporter read-out” (2022)
The whole screen tested about 150,000 compounds, of which about 540 (0.36%) showed an effect of 50% or more. The list shows a part of the results.

Tested on: Plasmodium falciparum
Test: Primary screen in NF54 nanoGlo assay, in single point, at 2uM, 72h; a lower Z score goes with more inhibition
Format: functional, Erythrocyte
Details: timepoint 72 hour

Structure (SMILES)	% Inhibition	Z score
Cc1noc(C)c1C(=O)N1C[C@@H]2COc3ccccc3C[C@]2(CO)C1	-12%	1.95
CCCc1nnc(N2CCCC3(CCN(C)CC3)CC2)o1	-6%	1.26
CCc1ccc(C(=O)N2CCC3(CC2)OC[C@@H](C(=O)N2CCN(C(C)=O)CC2)N3C(=O)c2ccc(F)cc2)cc1	-7%	0.7
Cc1c(Cl)cncc1NC(=O)N[C@H]1CCCNC1=O	-7%	1.14
Cn1ccc([C@H]2CCCN(C(=O)c3cccc(C#N)c3)C2)n1	-6%	0.72
COCC(C)N1CCN(S(=O)(=O)N2CC(C)CC(C)C2)CC1 (stereo unspecified)	-3%	0.44
Cc1cc(N2CCN(c3cccc(C)c3C)CC2)n2cnnc2n1	-5%	0.64
Cc1n[nH]c(C2CN(C(C)c3nc4ccccc4c(=O)[nH]3)CCO2)n1 (stereo unspecified)	-13%	1.5
Cc1cn2cc(C(=O)N[C@@H](C)c3nnc(N)s3)ccc2n1	-8%	1.24
O=C(c1[nH]nc2c1CCCCC2)N1CCN(Cc2ccccc2Cl)CC1	-5%	0.61
CCOC(=O)N1CCN(C2CCC(C)C2)CC1 (stereo unspecified)	-13%	2.38
O=C1CN(C(=O)c2cc(S(=O)(=O)N3CCCCC3)ccc2N2CCCC2)CCN1	-12%	1.5
CC(C)(C)c1nc(CS(=O)(=O)Cc2ccccc2F)no1	12%	-1.6
Cc1ccc2c(=O)c(-c3nc(-c4ccc(Cl)cc4)no3)cn(CC(=O)Nc3cccc(C)c3C)c2n1	-12%	1.03
Nc1nnc(C2CCN(C(=O)NCCc3ccc(F)cc3)CC2)o1	2%	-0.3
CCCNc1nc(OC(C(F)(F)F)C(F)(F)F)nc(N2CCCCCC2)n1	-8%	1.21
Cc1cnn(C2CN(CC(=O)Nc3nnc(C)s3)C2)c1	3%	-0.55
C[C@@H](CC(=O)Nc1ccc(F)cc1)Cc1nnc2c(=O)n(-c3cccc(F)c3)ccn12	-4%	0.53
N#Cc1c(NCc2cccnc2)ncnc1N1CCCC1	-14%	1.37
CCn1cc(CNCc2cnn(C)n2)c(C)n1	-10%	1.65
CCOC1CC(O)(CNS(=O)(=O)c2cc(F)cc(Cl)c2)C1(C)C (stereo unspecified)	1%	-0.2
O=C(Cc1ccccc1)Nc1ccc(C(=O)NC2CCCCC2)cc1	8%	-1.28
CCc1nnc(CN(CC)C[C@H]2CCOC(C)(C)C2)o1	-14%	2.42
CN(C)S(=O)(=O)c1ccc(N2CCCCC2)c(C(=O)NC[C@@H](c2ccco2)N2CCCC2)c1	34%	-3.84
COc1ccccc1Cc1nc(CCC(C)C)nn1C	-15%	2.29
N#Cc1cc(Br)ccc1NC1CC(=O)N2CCCCC12 (stereo unspecified)	34%	-3.82
CN1CCN(c2cc(N3CC(C)(C)[C@@](C)(O)C3)nc(N)n2)CC1	-5%	0.49

Structure (SMILES)	% Inhibition	Z score
Cc1cccc(C)c1NC(=O)[C@H](C)n1nc(C)c2c(C)onc2c1=O	-1%	0.07
COc1ccc(OC)c(-n2c(-c3ccccc3)cc(C(=O)N3CCN(C/C=C/c4ccccc4)CC3)c2C)c1	-8%	1.24
CC(C)[C@@H]1N(C(=O)c2ccnn2C2CCCC2)CC12CCC2	-5%	0.72
CCn1cc(C(=O)N2CC(n3cc(COCC4CC4)nn3)C2)cn1	-3%	0.63
Cc1ccc(Cl)cc1NC(=O)Cn1nc2c3ccccc3ncn2c1=O	-6%	1
Cc1cc(CN2CCN(C(=O)Nc3ccc(F)cn3)CC2)on1	-24%	3.29
C[C@H]1COCCN1C(=O)CCc1ccco1	-2%	0.25
c1cncc(-c2n[nH]c(C3CCC3)n2)c1	-11%	2.07
Cc1nn(C(C)C)cc1CNc1cnc2[nH]ccc2c1	-2%	0.42
O=S1(=O)NC[C@H](O)CN(Cc2ccccc2)C[C@@]2(COc3cc(-c4ccccc4)ccc31)C[C@@H](O)[C@@H](O)C2	-17%	2.13
COC(=O)CN(CCN1CCOCC1)Cc1cccc2cccnc12	1%	-0.12
COCCN(CCc1ccccc1)c1nnc(-c2ccc(C)s2)n1C	-5%	0.77
COc1ccc(-c2cnc3ncnn3c2N2CCN(C(=O)NCc3cccc(C)c3)CC2)cc1	2%	-0.21
C[C@H](NS(=O)(=O)Cc1ccon1)c1cccc(OC(F)F)c1	-2%	0.32
CC(C)(C(=O)N[C@H]1CCN(Cc2cccnc2)C[C@@H]1O)N1CCOCC1	-3%	0.41
CCn1nc(-c2ccc(C(=O)N3CCC(F)(F)CC3)cc2)nc1N(C)C	-7%	0.92
CC(=O)N1CCc2cc(S(=O)(=O)N(C)Cc3ccncc3)ccc21	3%	-0.59
O=C(NCC(=O)N1CCC(c2nc3cc(F)ccc3s2)CC1)c1cccnc1	10%	-1.38
COc1cc(C#N)cc(Cl)c1OC(C)C	10%	-1.38
CN(C)c1nc2c(c(N[C@@H]3COC4(CCCC4)C3)n1)CCNC2	-7%	0.87
Cc1cc(NC(=O)c2cccc(-n3cnnn3)c2)sn1	-7%	0.9
Cc1cccc(CN2CCC[C@@]3(CCN(Cc4ccc(C)o4)C3)C2=O)c1	-9%	1.37
CCCO[C@H]1CCCN(C(=O)c2cc(N3CCCC3=O)ccc2F)CC1	-15%	1.87
CC(C)(C)CCN1CCN(S(=O)(=O)C[C@H]2CCCS(=O)(=O)C2)CC1	36%	-5.15
CC(C)[C@@H](CO)Nc1cc(C(N)=O)nc(N[C@H](CO)C(C)C)n1	-5%	0.65
CCN(CC)C(=O)[C@@H](C)[C@@H]1CC[C@@]2(C)CC[C@H](NS(C)(=O)=O)[C@@H](C)[C@@H]2[C@H]1O	0%	0.07
